Here are results for 95 molecules from PubChem BioAssay AID1159614 (National Center for Advancing Translational Sciences (NCATS), 2016).

About 65 (0.1%) of roughly 45,000 compounds were called active. Calls come from the whole dose curve; as a rule, active = well fitted activation curve with a large enough effect; inconclusive = small, poorly fitted or top-dose-only effect; inactive = no such curve, though single readings can be large or run the other way. Some of the results follow.

This assay has as its target Galactocerebrosidase (Homo sapiens) (UniProt P54803). Description: A Novel Cell-Based Assay to Identify Small Molecules for B -Galactocerebrosidase. Note: 0% is about no effect; nearly all actives have a fitted effect of over 65% in size. As to conditions: 145M-Twi-hGALC-G270D cells (Twitcher mouse brain line with human GALC G270D), HMU-beta-Gal fluorescence, 48 h; series mostly up to 57.5 µM; activation: at the top concentration. The essentials: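 Fluorogenic HMU-b-Gal hydrolysis (0.1 mM final, pH 5.2 citrate-phosphate with 1 mg/mL sodium taurocholate; carbonate stop buffer) measures mutant GALC activity after compound treatment of live 145M-Twi Twitcher brain cells stably carrying human GALC-G270D, with wild-type GALC line alongside; activation sought.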
UniProt P54803, sequence (P54803 whole entry, looked up): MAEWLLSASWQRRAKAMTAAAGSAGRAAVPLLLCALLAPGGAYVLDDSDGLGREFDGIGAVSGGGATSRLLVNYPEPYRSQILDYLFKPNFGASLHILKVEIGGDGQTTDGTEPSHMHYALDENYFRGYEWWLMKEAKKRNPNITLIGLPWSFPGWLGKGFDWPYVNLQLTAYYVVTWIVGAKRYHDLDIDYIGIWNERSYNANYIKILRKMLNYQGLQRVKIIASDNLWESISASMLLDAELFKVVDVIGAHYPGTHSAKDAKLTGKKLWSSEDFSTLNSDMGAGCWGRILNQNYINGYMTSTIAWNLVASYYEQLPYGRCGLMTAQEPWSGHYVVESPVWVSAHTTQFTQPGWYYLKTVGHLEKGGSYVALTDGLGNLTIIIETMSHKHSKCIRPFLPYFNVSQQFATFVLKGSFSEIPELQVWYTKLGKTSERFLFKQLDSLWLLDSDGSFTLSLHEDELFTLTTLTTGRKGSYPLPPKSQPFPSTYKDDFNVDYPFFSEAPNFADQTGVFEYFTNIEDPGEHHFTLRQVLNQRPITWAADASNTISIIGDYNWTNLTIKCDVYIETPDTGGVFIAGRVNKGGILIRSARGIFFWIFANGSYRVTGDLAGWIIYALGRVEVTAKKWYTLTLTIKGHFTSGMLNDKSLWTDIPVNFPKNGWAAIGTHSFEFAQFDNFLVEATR
On to `CCOc1ccc(S(=O)(=O)Nc2ccc3c(c2)CCCN3C(=O)c2cccs2)cc1`, for which the “activation” value was inactive: 13.1%.
In the case of `COc1ccc(CNC(=O)CC(C)CC2=NS(=O)(=O)c3ccccc3N2)cc1` (stereo not given), the “activation” value was inactive: -10.3%.
The figure for `Cc1ccccc1Cn1c(=O)n(Cc2ccco2)c(=O)c2sc3ccccc3c21` is inactive: -9.43%.
The figure for `CCOc1ccc(CCNC(=O)C2Cc3ccccc3N2C(=O)CC)cc1` (stereo not given) is inactive: -13.5%; for `CCOC(=O)c1ccc(Nc2c(-c3ccc(OC)cc3)nc3nc[nH]n23)cc1` it is inactive: -7.5%.
The figure for `O=C(Cc1ccc(NC(=O)N2CCCCc3ccccc32)cc1)NCc1cccc(Br)c1` is inactive: -1.68%; for `COc1ccc(Cl)cc1NC(=O)Cn1c(=O)n(-c2ccc(C)cc2)c(=O)c2ccc(C(=O)NCc3ccccc3Cl)cc21` it is inactive: -15.8%.
Take `COc1ccc(CNC(=O)C(=O)NCC(c2ccco2)S(=O)(=O)c2cccs2)cc1` (stereo not given): the “activation” value was inactive: -8.22%.
The figure for `CCCCn1c(SCc2ccccc2C)nc2ccsc2c1=O` is inactive: -5.19%.
The figure for `Cc1nnc(SCc2cc(=O)c3cc(F)ccc3[nH]2)n1C` is inactive: -7.93%.
The figure for `Cc1cccc(N2CCN(C(=O)Cn3c(C)c4cnn(-c5ccccc5)c(=O)c4c3C)CC2)c1C` is inactive: -12.9%; for `CC(C)c1ccccc1NC(=O)C(Cc1c[nH]c2ccccc12)NC(=O)OC(C)(C)C` (stereo not given) it is inactive: -16.3%.
`Cc1ccc(S(=O)(=O)c2nc(-c3cccs3)oc2SCc2ccc(F)cc2)cc1`: the “activation” value was inactive: -6.97%.
The figure for `Cc1ccc(NC(=O)c2ccc3c(O)c(S(=O)(=O)c4ccc(Cl)cc4)c(=O)[nH]c3c2)cc1` is inactive: -15.1%; for `CCOC(=O)C1CCCN(C(=O)Cn2ncc3c(C)n(Cc4ccc(Cl)cc4)c(C)c3c2=O)C1` (stereo not given) it is inactive: -3.4%.
For the molecule `Cc1ccc(NS(=O)(=O)c2ccc3c(c2)CCN3C(=O)C2CC2)c(C)c1`, the “activation” value is inactive: -4.13%.
Consider `CC1=C(C#N)C(NC(=O)c2ccccc2)(C(F)(F)F)C(=O)N1` (stereo not given), for which the “activation” value was inactive: -9.79%.
The figure for `C=C(C)Cn1c(SCC(=O)c2ccc(Br)cc2)nc2sc3c(c2c1=O)CCCC3` is inactive: -11%.
Regarding `CCCC(=O)N1c2ccccc2-c2nnc(SC)nc2OC1c1sccc1C` (stereo not given), the “activation” value is inactive: -17.2%.
The figure for `CCOC(=O)c1c(NC(=O)COc2ccc(Cl)cc2Cl)sc2c1CCCCC2` is inactive: -12.5%; for `CCc1ccc(S(=O)(=O)Nc2cc3c(cc2C)n(C)c(=O)c(=O)n3C)cc1` it is inactive: -13.6%.
The figure for `CN(C)c1ccc(CNC(=O)Cn2c(-c3cccs3)cc3cc(Cl)ccc32)cc1` is inactive: -10.1%.
The figure for `Cc1ccc(C)c(N2CCN(S(=O)(=O)c3cc(C(=O)Nc4ccccc4C(F)(F)F)ccc3F)CC2)c1` is inactive: -24.2%.
As to `CC(Oc1ccccc1)C(=O)Nc1c(C(=O)Nc2cccc(F)c2)oc2ccccc12` (stereo not given), the “activation” value is inactive: -2.88%.
The figure for `O=c1c2oc3ccccc3c2n(Cc2ccccc2F)c(=O)n1Cc1ccc2c(c1)OCO2` is inactive: -6.31%; for `CCN(CC)S(=O)(=O)c1ccc(NC(=O)c2c(C)oc3ncnc(N4CCCCC4)c23)cc1` it is inactive: -22%; for `CC1=C(c2ccc(C)c(C)c2)S(=O)(=O)N=C1N1CCC(C(=O)NCc2ccc(N(C)C)cc2)CC1` it is inactive: -13.9%.
The figure for `Nc1c(-c2nc(-c3ccccc3Cl)no2)nnn1-c1ccccc1C(F)(F)F` is inactive: -19.7%; for `COc1ccccc1NC(=O)N1CCN(c2nnc(C)c3c(C)n(-c4ccccc4)nc23)CC1` it is inactive: 7.82%.
The figure for `Cc1ccc(-c2nnc(SCC(=O)NCc3ccccc3)o2)cc1` is inactive: -7.92%.
For the molecule `CCN(CC)CCN(C(=O)c1ccco1)c1nc2ccc(F)cc2s1`, the “activation” value was inactive: -15.3%.
The figure for `Cc1ccc(NC(=O)Cn2nc(C)c3nn(-c4ccc(Cl)cc4)c(C)c3c2=O)cc1F` is inactive: -8.13%; for `COc1ccc(N2CCN(C(=O)CSc3nc(-c4ccccc4)no3)CC2)cc1` it is inactive: -8.73%; for `COc1ccc(OC)c(CCNC(=O)CCCn2c(=O)c3cccn3c3cccnc32)c1` it is inactive: -10.7%.
The figure for `CCOc1ccc(CNS(=O)(=O)c2ccc3c(c2)CC(C)N3C(C)=O)cc1OC` (stereo not given) is inactive: -12.7%; for `O=C(NCc1ccccc1)c1ccc(CS(=O)(=O)c2c(Cl)cccc2Cl)o1` it is inactive: -1.44%; for `COc1ccc(-c2n[nH]c3c2C(c2ccccn2)N(C)C3=O)cc1` (stereo not given) it is inactive: -7.75%.
The figure for `COc1ccc(-n2nc3c(N4CCC(C(=O)NC5CCCCC5)CC4)nnc(C)c3c2C)cc1` is inactive: -10.3%; for `Cc1cc(C(=O)NCCc2ccc(Cl)cc2)c2c(C)nn(-c3ccccc3)c2n1` it is inactive: -13.6%; for `COc1cc(CNC(=O)c2ccc(NC(=O)N3CCCCc4ccccc43)cc2)cc(OC)c1OC` it is inactive: -8.77%.
Regarding `CCOc1ccc(OCC)c(NC(=O)CN(C)S(=O)(=O)c2ccc3[nH]c(=O)oc3c2)c1`, the “activation” value is inactive: -13.7%.
The figure for `Cc1ccc(NC(=O)c2nc(S(=O)(=O)Cc3ccc(F)cc3)ncc2Cl)cc1C` is inactive: -18.8%.
The figure for `Cc1ccc2oc(=O)c3cnn(CC(=O)N4CCN(c5cccc(Cl)c5)CC4)c3c2c1` is inactive: -18.6%; for `CCOC(=O)c1[nH]c(C)c(CCC(=O)N2CCN(c3cc(C)ccc3C)CC2)c1C` it is inactive: -9.96%.
The figure for `O=C(CSc1nc(=O)[nH]c2c1CCC2)Nc1cc(C(F)(F)F)ccc1Cl` is inactive: -5.42%.
As for `Cc1cccc(C(=O)Nc2ccc3nc(SCC(=O)N4CCCC4)sc3c2)c1`, the “activation” value is inactive: -4.63%.
In the case of `CC(=O)c1cccc(NC(=O)CCn2nc(C)c(S(=O)(=O)N3CCCCC3)c2C)c1`, the “activation” value was inactive: -8.98%.
As for `Cc1ccc(OCC(=O)NCC(=O)OCc2cc(=O)n3nc(CC(C)C)sc3n2)cc1`, the “activation” value was inactive: -7.48%.
`CCc1ccccc1NC(=O)C1CCCN(S(=O)(=O)c2ccc3[nH]c(=O)ccc3c2)C1` (stereo not given): the “activation” value was inactive: 2%.
The figure for `O=C(c1cccs1)N1CCCc2cc(NS(=O)(=O)c3cc(F)ccc3F)ccc21` is inactive: -10.2%; for `O=C(NCCc1ccc(Cl)cc1)c1cnc2sc(N3CCCC3)nn2c1=O` it is inactive: -5.86%; for `CC(=O)[C@@]1(O)CC[C@H]2[C@@H]3CCC4=CC(=O)CC[C@]4(C)[C@H]3CC[C@@]21C` it is inactive: -10.8%.
Regarding `O=C(NCCCN1CCN(c2cccc(Cl)c2)CC1)c1ccc2nc(Cc3ccccc3)oc2c1`, the “activation” value is inactive: -9.17%.
`COc1cccc(CNC(=O)Cn2nc(C)c3sc4ccccc4c3c2=O)c1OC`: the “activation” value was inactive: -10.7%.
The figure for `COc1ccc(NC(=O)c2cc(-c3ccccc3F)no2)cc1` is inactive: -12.4%; for `Cc1cccc(Nc2sc(C(=O)c3ccc(Cl)cc3)c(N)c2C(N)=O)c1` it is inactive: -15.7%; for `Cc1nn2c(C)c(C(=O)N3CCN(c4ccc(Cl)cc4)CC3)cnc2c1-c1ccc(F)cc1` it is inactive: -18.8%.
The figure for `CCN(CC)C(=O)c1ccc(O)c(OC)c1` is inactive: -6.89%; for `COc1cc2c(cc1OC)n(CC(=O)c1ccc(C)cc1C)c(=O)n1nc(CCn3nc(C)cc3C)nc21` it is inactive: -9.71%.
The figure for `O=S(=O)(c1ccc(-c2cnc(C3CC3)o2)cc1)N1CCN(c2ccccc2F)CC1` is inactive: -8.06%; for `Cc1ccccc1CN1C(=O)c2ccccc2Sc2ccc(C(=O)NCCc3ccccc3)cc21` it is inactive: -7.67%; for `Cc1ccc2nc(NC(=O)c3ccc(S(=O)(=O)N4CCC(C)CC4)cc3)sc2c1` it is inactive: -16.5%.
In the case of `Cc1cccc(C)c1OCC(=O)N(Cc1ccco1)Cc1ccco1`, the “activation” value is inactive: -4.66%.
The figure for `CCOC(=O)c1c(C)[nH]c(C)c1S(=O)(=O)N1CCC(C(=O)N2CCN(c3ccc(F)cc3)CC2)CC1` is inactive: -5.93%; for `Cc1ccc2c(=O)cc(CSc3ncn[nH]3)[nH]c2c1C` it is inactive: -8.56%; for `CCn1cc(C(=O)N2CCN(c3cccc(Cl)c3)CC2)c(=O)c2cc(S(=O)(=O)N3CCC(C)CC3)ccc21` it is inactive: -1.02%.
The figure for `O=C(CCCN1C(=O)c2cccnc2Oc2ccc(Cl)cc21)NCc1ccc(F)cc1` is inactive: -1.67%.
As for `CN1CCN(CCNC(=O)c2cnn(-c3ccc(F)cc3)c2C2CCN(C(=O)OC(C)(C)C)CC2)CC1`, the “activation” value was inactive: -11.6%.
The figure for `Cc1ccc(N2CC(NC(=O)c3cccs3)CC2=O)cc1` (stereo not given) is inactive: -4.79%.
The figure for `CCCCNC(=O)c1ccc2c(c1)N=C(CC)c1ccccc1S2` is inactive: -9.87%; for `Cc1ccc2c(c1)C(=O)OC(C(=O)Nc1ccccc1C(=O)O)C2` (stereo not given) it is inactive: -10.9%.
The figure for `O=C(CN1C(=O)C2(SCC(=O)N2c2ccc(F)cc2)c2ccccc21)NC1CCCCC1` (stereo not given) is inactive: -22.5%; for `CCOc1ccc(-n2cc(-c3ccccc3)c3c(NC4CCCC4)ncnc32)cc1` it is inactive: 1.9%.
In the case of `CC1=C(c2ccc(C)c(C)c2)S(=O)(=O)N(Cc2ccc(C(=O)Nc3cc(F)ccc3F)cc2)C1=O`, the “activation” value was inactive: -12.1%.
The figure for `O=C(Nc1ccccc1)Nc1nnc(SCC(=O)N2CCCCC2)s1` is inactive: -13.3%; for `Cc1ccc(N2C(=O)CSC23C(=O)N(CC(=O)NCc2ccccc2)c2ccccc23)cc1` (stereo not given) it is inactive: 6.99%.
The figure for `CCCCc1ccc(NC(=O)CSc2nc(=O)[nH]c3c2CCCC3)cc1` is inactive: -16.6%; for `Cc1ccccc1Nc1nc(N)c(C(=O)c2ccccc2Cl)s1` it is inactive: -12.7%; for `Cc1cc2oc(C(=O)N(Cc3ccc(N(C)C)cc3)Cc3ccco3)c(C)c2cc1Cl` it is inactive: -11.6%.
The figure for `COc1cccc(N2CC(NC(=O)COc3ccccc3F)CC2=O)c1` (stereo not given) is inactive: -14.3%; for `CCOc1ccc(NC(=O)c2cnc3sc(N4CCOCC4)nn3c2=O)cc1` it is inactive: 1.38%; for `O=C(Nc1cccc(C(=O)OCc2cc(=O)n3nc(C4CC4)sc3n2)c1)c1cccc(Cl)c1` it is inactive: -0.0185%.
`COc1ccc(Nc2oc(/C=C/c3ccccc3OC)nc2C#N)cc1`: the “activation” value was inactive: -16.5%.
The figure for `Cc1ccc(C)c(NC(=O)CSc2ccc3nc(-c4ccccc4)cn3n2)c1` is inactive: -3.77%; for `CCOc1ccc(CCNC(=O)Cn2c(-c3cccs3)cc3ccccc32)cc1OCC` it is inactive: -12.6%; for `COC(=O)CCN(c1ccccc1)C(CNS(=O)(=O)c1ccccc1)c1ccccc1` (stereo not given) it is inactive: -23.3%.
The figure for `CCOc1ccc(S(=O)(=O)N2CCN(Cc3nc4ccc(C)cc4o3)CC2)cc1` is inactive: -44.3%; for `O=C(CSc1nc2c([nH]c3ccccc32)c(=O)n1-c1ccccc1F)Nc1cccc(C(F)(F)F)c1` it is inactive: -37%.
The figure for `COc1cc2c(cc1NC(=O)c1ccccc1C)n(C)c(=O)n2C` is inactive: 1.23%; for `CCSc1nnc(NC(=O)c2cc(=O)c3cc(C)ccc3o2)s1` it is inactive: -19.8%.
Take `O=C(CSc1oc(-c2ccc(F)cc2)nc1S(=O)(=O)c1ccccc1)NC1CCCCC1`: the “activation” value was inactive: -12.1%.
The figure for `CCc1ccc(CNC(=O)c2ccc(-c3nc(CSc4ccc(C)cc4)c(C)o3)cc2)cc1` is inactive: -3.67%; for `Cc1nc2cc(-c3cccc(F)c3)nn2c(C)c1CCC(=O)NC(C)c1ccccc1` (stereo not given) it is inactive: -21.1%; for `COc1cc(C(=O)NCCc2sc(-c3cccc(F)c3)nc2C)cc(OC)c1OC` it is inactive: -7.32%.
The figure for `O=C(Nc1ccccc1Br)c1cc(CN2CCCC2)on1` is inactive: 8.06%.
